# Some of the results follow. These are enrichments in a pooled selection; single values are uncertain. Scores sum up all selected molecules that hold the word; the word was not tested alone.
# Tested on: IMP3 KH1-4
# Test: 6-mer SELEX enrichment z-score vs GST control; IMP3 is the RNA-binding protein IGF2BP3; higher = more enriched by binding
# Settings: construct: KH1-4 (164-579); SELEX round: R4
# Description: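 SELEX-seq with GST-tagged IMP3 KH1-4 (Pro164-Lys579) and an N40 RNA pool, round 4. 6-mer z-score of sequence-tag enrichment normalised to the corresponding GST SELEX round; RNA k-mers written as DNA (T for U).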
# Chain of IMP3 KH1-4 (chain, as listed by the source): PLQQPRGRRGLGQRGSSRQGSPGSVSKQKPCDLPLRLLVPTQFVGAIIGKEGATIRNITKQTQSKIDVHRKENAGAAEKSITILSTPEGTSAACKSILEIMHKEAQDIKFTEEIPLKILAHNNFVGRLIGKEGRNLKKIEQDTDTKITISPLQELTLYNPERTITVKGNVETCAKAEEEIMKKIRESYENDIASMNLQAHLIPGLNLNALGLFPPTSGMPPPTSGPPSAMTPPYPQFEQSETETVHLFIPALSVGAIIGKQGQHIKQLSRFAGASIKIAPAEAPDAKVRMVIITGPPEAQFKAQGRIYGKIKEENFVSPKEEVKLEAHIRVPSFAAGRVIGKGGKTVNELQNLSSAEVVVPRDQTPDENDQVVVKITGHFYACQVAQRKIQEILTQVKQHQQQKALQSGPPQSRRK
row,Sequence,6-mer SELEX enrichment z-score
1,ACCGCC,-0.187
2,GACCTA,-1.29
3,CCATTT,0.844
4,ATGTAA,0.953
5,GCGAGT,-1.1
6,ACCCCA,-1.13
7,GGTTCA,0.165
8,GCCTGA,-0.876
9,GACGGC,0.956
10,TCTCCC,-0.137
11,CTAATT,0.712
12,ACCACT,0.191
13,GCTGAG,-0.747
14,GATTGT,0.269
15,CGCACT,0.416
16,TGCCAA,-0.811
17,TTTCAC,1.2
18,CGTACA,-0.65
19,GAATGC,0.011
20,GGTTCG,0.003

row,Sequence,6-mer SELEX enrichment z-score
1,CATTTT,0.954
2,AAGGCG,-0.509
3,AGGGAT,0.678
4,GGAATC,-0.427
5,TGATAG,0.611
6,AAATCC,-0.485
7,GGATCA,0.486
8,GATCTG,-0.067
9,ATACAG,1.71
10,CGGGGA,0.571
11,GAGCCA,-1.19
12,CTGGTG,-0.227
13,GTCCAT,0.593
14,CCACTT,0.321
15,AAGCCC,-1.5
16,ATAACT,1.39
17,AGAAGA,0.906
18,GCCTTC,0.004
19,GTCAAT,0.482
20,TATCCG,-0.421

# Tested on: IMP3 RRM1-2
# Sequence (chain, as listed by the source): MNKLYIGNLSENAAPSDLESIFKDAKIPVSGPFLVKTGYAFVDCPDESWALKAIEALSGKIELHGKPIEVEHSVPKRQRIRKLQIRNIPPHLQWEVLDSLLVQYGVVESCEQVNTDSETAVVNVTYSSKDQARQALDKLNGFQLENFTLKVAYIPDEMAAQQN
# Test: as above
# Settings: construct: RRM1-2 (1-163); SELEX round: R2
# Description: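 SELEX-seq with GST-tagged IMP3 RRM1-2 (Met1-Asn163) and an N40 RNA pool, round 2. 6-mer enrichment z-score normalised to GST SELEX. RNA written as DNA (T = U).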
row,Sequence,6-mer SELEX enrichment z-score
1,ACCGCC,-0.962
2,GACCTA,-0.896
3,CCATTT,0.394
4,ATGTAA,-0.54
5,GCGAGT,-0.099
6,ACCCCA,-1.03
7,GGTTCA,0.473
8,GCCTGA,-0.617
9,GACGGC,-0.227
10,TCTCCC,0.001
11,CTAATT,-0.048
12,ACCACT,1.05
13,GCTGAG,-0.135
14,GATTGT,-0.036
15,CGCACT,0.286
16,TGCCAA,-0.55
17,TTTCAC,0.958
18,CGTACA,-0.127
19,GAATGC,-0.775
20,GGTTCG,0.266

row,Sequence,6-mer SELEX enrichment z-score
1,CATTTT,0.77
2,AAGGCG,-0.007
3,AGGGAT,-0.053
4,GGAATC,-0.071
5,TGATAG,-0.203
6,AAATCC,-1.27
7,GGATCA,1.3
8,GATCTG,-0.12
9,ATACAG,0.736
10,CGGGGA,-0.527
11,GAGCCA,-0.477
12,CTGGTG,0.191
13,GTCCAT,0.285
14,CCACTT,0.352
15,AAGCCC,-1.3
16,ATAACT,-0.225
17,AGAAGA,-1.35
18,GCCTTC,0.289
19,GTCAAT,0.275
20,TATCCG,-0.259

# Biological target: IMP3 full-length (UniProt O00425)
# Chain of UniProt O00425 (O00425 whole entry): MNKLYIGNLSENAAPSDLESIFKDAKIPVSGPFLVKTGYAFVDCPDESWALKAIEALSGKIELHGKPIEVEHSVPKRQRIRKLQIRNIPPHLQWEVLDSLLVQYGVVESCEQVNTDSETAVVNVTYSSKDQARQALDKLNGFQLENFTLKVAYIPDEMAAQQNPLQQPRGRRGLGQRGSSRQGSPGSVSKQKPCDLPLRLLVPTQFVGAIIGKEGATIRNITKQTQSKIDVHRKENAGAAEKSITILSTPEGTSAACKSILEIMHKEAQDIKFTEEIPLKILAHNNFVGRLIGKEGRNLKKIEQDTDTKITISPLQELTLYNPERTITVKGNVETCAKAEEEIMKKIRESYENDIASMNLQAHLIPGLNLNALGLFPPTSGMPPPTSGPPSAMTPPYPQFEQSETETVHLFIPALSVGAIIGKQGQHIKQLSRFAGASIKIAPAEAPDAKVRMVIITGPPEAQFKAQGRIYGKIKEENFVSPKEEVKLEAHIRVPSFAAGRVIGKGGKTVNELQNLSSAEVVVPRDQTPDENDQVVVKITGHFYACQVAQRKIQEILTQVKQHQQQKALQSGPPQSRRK
# Test: as above
# Settings: construct: FL IMP3 (1-579); SELEX round: R4
# Description: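 SELEX-seq with GST-tagged full-length IMP3 and an N40 RNA pool, round 4. Each 6-mer is scored as an enrichment z-score of sequence tags containing it, normalised to the matching GST SELEX round. RNA written as DNA (T = U).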
row,Sequence,6-mer SELEX enrichment z-score
1,ACCGCC,-0.301
2,GACCTA,-1.33
3,CCATTT,0.38
4,ATGTAA,-0.255
5,GCGAGT,-0.335
6,ACCCCA,-1.37
7,GGTTCA,0.456
8,GCCTGA,-0.912
9,GACGGC,1.2
10,TCTCCC,-0.415
11,CTAATT,-0.095
12,ACCACT,-0.189
13,GCTGAG,-0.277
14,GATTGT,-0.116
15,CGCACT,0.486
16,TGCCAA,-0.847
17,TTTCAC,1.07
18,CGTACA,0.314
19,GAATGC,-0.542
20,GGTTCG,0.206

# — the supplement of paper PMC6531468
